Source: the supplement of paper PMC12217912
Some of the results follow. Sequences were assembled here from the parent chain. Values near 0.05 are background.

B1: TEV protease; numbered along this chain (parent)
chain: MGESLFKGPRDYNPISSSICHLTNESDGHTTSLYGIGFGPFIITNKHLFRRNNGTLVVQSLHGVFKVKDTTTLQQHLVDGRDMIIIRMPKDFPPFPQKLKFREPQREERICLVTTNFQTKSMSSMVSDTSCTFPSGDGIFWKHWIQTKDGQCGSPLVSTRDGFIVGIHSASNFTNTNNYFTSVPKNFMELLTNQEAQQWVSGWRLNADSVLWGGHKVFMVKPEEPFQPVKEATQL

Variants of: B1
Assay: raw area under fraction-flipped curve 0-4 h after induction (AUC4h, not background-subtracted), DNA-recorder readout of cleavage of the substrate (dimensionless); higher = more cleavage of the substrate by the protease variant
Details: temperature: 34 °C; time window: 0-4 h after rhamnose induction
Experimental: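 In vivo DNA recorder in E. coli TOP10(DE3) ΔrhaA at 34 °C. Each TEVp single-site mutant (parent TEVp 0) is paired with a single-site variant of the 7-mer TEVs (canonical ENLYFQ|S). The substrate sits between flexible linkers in a Bxb1-sfGFP-TEVs-SsrA fusion, so cleavage stabilises Bxb1 and speeds flipping of a recombination array, read by NGS. The value is the raw area under the fraction-flipped curve over 0-4 h after rhamnose induction (AUC4h), with ≥20 reads per time point. It is not background-subtracted; inactive controls average about 0.047.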
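Note: Bxb1 expression induced with 0.2% (w/v) L-rhamnose at OD600 near 0.5, cultures sampled hourly, flipped fraction per protease–substrate barcode pair counted by paired-end Illumina sequencing.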

| Variant | area with substrate ENLYAQS | area with substrate ENLYCQS | area with substrate ENLYDQS | area with substrate ENLYEQS | area with substrate ENLYGQS | area with substrate ENLYHQS | area with substrate ENLYIQS | area with substrate ENLYKQS | area with substrate ENLYLQS | area with substrate ENLYMQS | area with substrate ENLYNQS | area with substrate ENLYPQS | area with substrate ENLYTQS | area with substrate ENLYWQS | area with substrate ENLYYQS | area with substrate ENLYRQS | area with substrate ENLYQQS | area with substrate ENLYSQS | area with substrate ENLYVQS |
| --- | --- | --- | --- | --- | --- | --- | --- | --- | --- | --- | --- | --- | --- | --- | --- | --- | --- | --- | --- |
| R50G | 0.0715 | 0.0782 | 0.0613 | 0.0628 | 0.0629 | 0.0647 | 0.123 | 0.0626 | 0.0711 | 0.0853 | 0.0636 | 0.0688 | 0.0657 | 0.0627 | 0.0562 |  |  |  |  |
| R50M | 0.0804 |  |  | 0.0648 | 0.0728 | 0.0939 |  |  | 0.124 | 0.0657 |  | 0.0812 |  | 0.107 |  | 0.0624 |  |  |  |
| D79P | 0.0663 |  |  | 0.052 | 0.0628 | 0.102 | 0.106 |  |  |  |  |  |  | 0.115 |  | 0.0526 |  |  |  |
| K100C | 0.0623 |  | 0.0656 | 0.0609 | 0.0547 | 0.0751 | 0.144 | 0.0671 |  | 0.102 | 0.0668 | 0.0829 |  | 0.0963 | 0.0816 | 0.0559 | 0.0489 | 0.0682 | 0.145 |
| K68G | 0.0785 |  |  |  | 0.0596 |  |  | 0.085 |  |  |  | 0.0664 | 0.101 | 0.0821 | 0.0577 | 0.0549 |  | 0.112 |  |
| K68P | 0.0739 |  | 0.0601 | 0.0701 |  | 0.0662 | 0.146 | 0.0425 | 0.0913 | 0.0747 | 0.0748 | 0.0696 |  | 0.103 |  | 0.0568 | 0.051 |  |  |
| R81Y | 0.0678 |  | 0.0637 | 0.0702 | 0.0648 |  | 0.0628 | 0.057 |  |  | 0.0613 | 0.0501 | 0.0623 | 0.12 | 0.0558 | 0.0567 |  | 0.0737 | 0.0952 |
| F49W | 0.0651 | 0.0717 | 0.0303 | 0.0635 | 0.0733 | 0.0661 | 0.11 | 0.0652 | 0.0818 | 0.0671 | 0.0732 | 0.0563 | 0.0845 | 0.0754 | 0.0577 | 0.0456 |  | 0.0604 | 0.0981 |
| H76V | 0.0662 | 0.0855 |  | 0.0703 |  |  | 0.103 | 0.0525 | 0.123 | 0.0641 | 0.0864 | 0.0719 |  |  | 0.0657 |  |  |  | 0.0714 |
| Q74A | 0.0789 | 0.0816 | 0.0574 |  | 0.0685 | 0.0777 |  | 0.0656 |  | 0.102 | 0.063 | 0.0639 | 0.0906 | 0.0797 | 0.0744 | 0.0665 | 0.0442 |  |  |
| Q74M | 0.0687 |  | 0.0686 | 0.0584 | 0.0605 | 0.0642 | 0.0989 | 0.0619 | 0.111 | 0.0705 | 0.0713 | 0.049 |  | 0.0739 | 0.0874 | 0.0699 | 0.0695 |  | 0.0994 |
| R87F | 0.0606 |  | 0.0664 | 0.0739 | 0.0619 | 0.0528 | 0.132 | 0.0543 |  | 0.0846 | 0.065 | 0.0685 |  | 0.0782 |  | 0.0528 | 0.0712 | 0.0558 |  |
| R87I | 0.0439 |  | 0.0645 | 0.0585 | 0.0553 | 0.0611 | 0.0707 | 0.0379 | 0.0633 | 0.0707 | 0.0646 | 0.0704 |  | 0.0668 | 0.0594 | 0.0503 |  | 0.066 | 0.0978 |
| R87A | 0.0844 |  |  |  | 0.0545 |  |  | 0.0438 |  | 0.0798 |  |  |  |  |  | 0.0649 |  |  | 0.103 |
| N53W | 0.0647 | 0.06 | 0.064 | 0.0583 | 0.0595 | 0.0647 | 0.128 | 0.0644 |  | 0.0919 | 0.0681 | 0.0529 | 0.0717 | 0.0652 | 0.0562 | 0.0525 | 0.0699 | 0.0776 | 0.0896 |
| N53Y | 0.0607 | 0.078 | 0.0614 | 0.0688 | 0.0626 | 0.0563 | 0.0801 | 0.0635 | 0.0629 | 0.072 | 0.0572 |  | 0.0377 | 0.062 | 0.0708 | 0.0617 |  | 0.0584 | 0.0885 |
| L77C | 0.113 |  |  | 0.063 | 0.0576 | 0.0631 | 0.0726 | 0.0697 | 0.0434 |  | 0.0594 |  |  | 0.0673 | 0.0545 | 0.0717 | 0.0685 |  | 0.0766 |
| F92D | 0.0641 |  | 0.0612 | 0.0541 | 0.0729 |  | 0.0598 | 0.0638 | 0.0508 | 0.052 | 0.0623 | 0.0549 | 0.0564 | 0.0749 |  |  |  | 0.0564 | 0.0744 |
| F92I | 0.0669 |  | 0.0613 |  | 0.0676 | 0.0627 | 0.13 |  |  | 0.0793 | 0.0778 | 0.072 | 0.0646 | 0.0746 | 0.0633 |  | 0.0665 |  | 0.12 |
| D91I | 0.0779 |  |  | 0.0591 |  |  | 0.112 | 0.0537 |  |  |  |  |  |  | 0.0487 | 0.061 | 0.0537 | 0.0101 |  |
| D91N | 0.0858 |  |  | 0.0698 |  |  | 0.149 |  |  | 0.104 |  |  | 0.0757 | 0.103 |  |  |  |  | 0.0618 |
| D91R | 0.0598 |  |  |  | 0.0516 |  |  |  |  |  |  |  |  |  |  |  |  |  |  |
| D91K | 0.0508 | 0.0757 |  | 0.0868 | 0.0608 | 0.0876 | 0.133 | 0.061 |  |  | 0.0617 | 0.0586 |  |  | 0.0417 | 0.0603 | 0.0667 | 0.086 | 0.112 |
| Q59D | 0.0802 |  |  | 0.063 |  | 0.0375 |  |  |  | 0.0513 |  | 0.0709 | 0.0979 |  |  | 0.1 |  |  | 0.124 |
| K90S | 0.0721 |  | 0.042 | 0.0552 | 0.0689 | 0.0601 | 0.0984 | 0.0782 |  | 0.0576 | 0.0589 | 0.0632 | 0.0766 | 0.0665 | 0.0554 | 0.0669 |  |  | 0.139 |
| K90N | 0.0786 |  |  | 0.0635 | 0.0368 | 0.0638 |  |  | 0.105 |  |  | 0.0559 | 0.0864 | 0.0796 |  |  | 0.0729 | 0.0687 |  |
| I86T | 0.0689 | 0.0466 | 0.054 | 0.0519 | 0.0317 | 0.0741 | 0.0551 |  |  |  |  | 0.065 | 0.055 |  | 0.0509 |  |  |  |  |
| N52E | 0.0732 |  |  | 0.0634 | 0.0628 | 0.0686 |  | 0.0593 |  | 0.054 | 0.0639 |  | 0.0836 | 0.0571 | 0.0604 | 0.0619 | 0.0711 | 0.0593 |  |
